The other results are listed elsewhere or left out. Values come from read counts of a selection and are noisy. Each score is taken over the longer molecules that contain the sequence shown.
Assays:
Experiment in all cases: 6-mer SELEX enrichment z-score vs GST control; IMP3 is the RNA-binding protein IGF2BP3; higher = more enriched by binding
IMP3 KH1-4 = settings: construct: KH1-4 (164-579); SELEX round: R4
Procedure: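 SELEX-seq with GST-tagged IMP3 KH1-4 (Pro164-Lys579) and an N40 RNA pool, round 4. 6-mer z-score of sequence-tag enrichment normalised to the corresponding GST SELEX round; RNA k-mers written as DNA (T for U).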

IMP3 RRM1-2 = settings: construct: RRM1-2 (1-163); SELEX round: R2
IMP3 RRM1-2, sequence (chain, as listed by the source): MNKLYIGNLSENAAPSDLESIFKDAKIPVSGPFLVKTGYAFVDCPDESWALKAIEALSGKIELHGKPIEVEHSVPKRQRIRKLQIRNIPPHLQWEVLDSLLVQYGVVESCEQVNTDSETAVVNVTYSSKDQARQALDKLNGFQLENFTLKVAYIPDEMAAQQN
Procedure: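 SELEX-seq with GST-tagged IMP3 RRM1-2 (Met1-Asn163) and an N40 RNA pool, round 2. 6-mer enrichment z-score normalised to GST SELEX. RNA written as DNA (T = U).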

IMP3 full-length = IMP3 full-length (UniProt O00425); settings: construct: FL IMP3 (1-579); SELEX round: R4
UniProt O00425, sequence (O00425 whole entry): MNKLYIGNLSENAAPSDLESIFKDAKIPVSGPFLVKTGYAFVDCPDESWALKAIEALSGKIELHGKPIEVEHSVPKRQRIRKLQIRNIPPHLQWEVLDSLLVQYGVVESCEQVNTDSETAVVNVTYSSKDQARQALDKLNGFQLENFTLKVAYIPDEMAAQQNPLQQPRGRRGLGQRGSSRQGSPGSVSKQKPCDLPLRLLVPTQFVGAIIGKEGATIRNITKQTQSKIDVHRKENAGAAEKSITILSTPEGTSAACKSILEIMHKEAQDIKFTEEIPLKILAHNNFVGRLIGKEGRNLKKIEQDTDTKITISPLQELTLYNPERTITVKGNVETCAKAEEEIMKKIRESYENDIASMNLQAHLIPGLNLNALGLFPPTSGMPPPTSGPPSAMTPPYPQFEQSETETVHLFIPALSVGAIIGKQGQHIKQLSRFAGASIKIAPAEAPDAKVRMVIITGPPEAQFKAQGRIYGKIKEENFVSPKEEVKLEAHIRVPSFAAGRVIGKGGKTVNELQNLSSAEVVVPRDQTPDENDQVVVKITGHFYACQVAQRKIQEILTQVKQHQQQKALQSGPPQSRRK
Procedure: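 SELEX-seq with GST-tagged full-length IMP3 and an N40 RNA pool, round 4. Each 6-mer is scored as an enrichment z-score of sequence tags containing it, normalised to the matching GST SELEX round. RNA written as DNA (T = U).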

IMP3 KH1-2 = settings: construct: KH1-2 (164-376); SELEX round: R4
IMP3 KH1-2, sequence (chain, as listed by the source): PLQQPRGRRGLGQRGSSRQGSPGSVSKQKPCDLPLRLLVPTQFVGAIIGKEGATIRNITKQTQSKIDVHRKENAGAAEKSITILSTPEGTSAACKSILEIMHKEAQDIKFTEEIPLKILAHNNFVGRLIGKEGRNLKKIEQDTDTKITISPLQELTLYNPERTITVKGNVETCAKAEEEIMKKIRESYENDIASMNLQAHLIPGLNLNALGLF
Procedure: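 SELEX-seq with GST-tagged IMP3 KH1-2 (Pro164-Phe376) and an N40 RNA pool, round 4 (stringent 300/600 mM KCl washes). 6-mer z-score of sequence-tag enrichment normalised to the corresponding GST SELEX round; RNA k-mers written as DNA (T for U).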

IMP3 KH3-4 = settings: construct: KH3-4 (377-579); SELEX round: R4
IMP3 KH3-4, sequence (chain, as listed by the source): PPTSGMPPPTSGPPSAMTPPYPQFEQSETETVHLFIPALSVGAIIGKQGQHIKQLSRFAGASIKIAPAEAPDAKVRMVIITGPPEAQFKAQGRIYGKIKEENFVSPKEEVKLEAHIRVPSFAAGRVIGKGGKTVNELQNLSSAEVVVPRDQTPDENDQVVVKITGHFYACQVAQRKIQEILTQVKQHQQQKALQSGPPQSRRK
Procedure: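 SELEX-seq with GST-tagged IMP3 KH3-4 (Pro377-Lys579) and an N40 RNA pool, round 4. 6-mer z-score of sequence-tag enrichment normalised to the corresponding GST SELEX round; RNA k-mers written as DNA (T for U).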

IMP3 KH1-4, sequence (chain, as listed by the source): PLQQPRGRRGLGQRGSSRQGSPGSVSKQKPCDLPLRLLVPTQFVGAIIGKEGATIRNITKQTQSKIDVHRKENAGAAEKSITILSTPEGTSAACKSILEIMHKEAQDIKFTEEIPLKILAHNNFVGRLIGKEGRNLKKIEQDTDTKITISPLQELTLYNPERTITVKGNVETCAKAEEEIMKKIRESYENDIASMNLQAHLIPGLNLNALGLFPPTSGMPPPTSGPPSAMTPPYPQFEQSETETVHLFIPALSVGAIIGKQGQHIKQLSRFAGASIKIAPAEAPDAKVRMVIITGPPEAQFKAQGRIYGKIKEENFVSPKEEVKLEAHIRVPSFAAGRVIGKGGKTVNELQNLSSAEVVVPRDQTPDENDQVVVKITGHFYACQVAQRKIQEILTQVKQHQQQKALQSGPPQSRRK

Sequence	6-mer SELEX enrichment z-score (IMP3 KH1-4)	6-mer SELEX enrichment z-score (IMP3 RRM1-2)	6-mer SELEX enrichment z-score (IMP3 full-length)	6-mer SELEX enrichment z-score (IMP3 KH1-2)	6-mer SELEX enrichment z-score (IMP3 KH3-4)
TATCGG	0.174	0.21	0.277	0.078	0.263
GATGGC	0.829	-0.1	0.513	0.703	0.99
CCTGAT	-0.238	-0.34	-0.72	-0.359	-0.476
TCTGCA	0.388	0.34	0.577	0.402	0.05
TAGGGG	0.869	0.249	0.422	1.05	1.14
TTATGG	0.647	0.262	0.2	0.426	0.855
CGACGA	-1.81	-1.19	-1.08	-1.71	-1.78
CGAAGT	-1.04	-0.564	-0.78	-1.02	-0.926
TTATGT	0.809	0.305	0.163	0.54	0.922
CGATAG	-0.288	-0.521	-0.204	-0.242	-0.103
TCACGT	-0.231	0.483	0.341	-0.312	-0.286
TGAGTC	0.255	0.019	0.283	0.128	0.191
CTAAAT	0.334	-0.587	-0.656	0.264	0.602
TTTCAC	1.2	0.958	1.07	1.45	0.901
AGCACG	0.238	0.454	0.861	-0.014	-0.191
TACATA	2.24	1.19	1.81	2.68	2.47
AACGCA	0.149	-0.032	0.006	0.08	-0.252
GCTAGC	-0.507	0.148	-0.123	-0.37	-0.394
ATGTCT	-0.178	0.306	0.074	-0.126	-0.042
TTGCCG	-0.145	-0.044	-0.179	-0.128	-0.317
ACGTGG	-0.427	-0.256	-0.257	-0.493	-0.424
GACGTA	-1.8	-0.592	-1.12	-1.68	-1.52
AGTGCT	-0.149	0.077	-0.055	-0.093	-0.049

Sequence	6-mer SELEX enrichment z-score (IMP3 KH1-4)	6-mer SELEX enrichment z-score (IMP3 RRM1-2)	6-mer SELEX enrichment z-score (IMP3 full-length)	6-mer SELEX enrichment z-score (IMP3 KH1-2)	6-mer SELEX enrichment z-score (IMP3 KH3-4)
GCATTG	0.104	0.482	0.462	0.043	0.002
CGCGGG	-0.206	0.038	0.547	0.145	-0.031
ACTGTG	0.412	-0.273	-0.123	0.215	0.195
GGGACG	0.277	-0.398	0.193	0.415	0.23
CTCGGG	-0.694	0.429	0.101	-0.453	-0.369
AGGGGA	1.16	-0.28	0.121	1.32	1.16
GTCCAC	0.31	0.178	0.434	0.07	-0.385
TCAACT	0.401	0.578	0.439	0.426	0.252
GTGACG	-0.103	-0.424	-0.096	-0.206	-0.115
AAAGTG	-0.385	-1.14	-1.03	-0.636	-0.08
TGGACC	-0.71	-0.288	-0.393	-0.86	-1.1
AGATGT	0.488	-0.401	-0.153	0.168	0.65
TCTACC	-0.603	-0.183	-0.654	-0.626	-0.843
TCAAGT	-0.059	0.549	0.358	-0.161	-0.006
GCTTGT	-0.048	0.337	0.01	-0.016	0.114
ACTAAG	0.158	0.034	-0.364	-0.02	0.326
TGTCTA	-0.146	0.107	-0.122	-0.191	-0.055
GCCTTG	-0.73	0.066	-0.383	-0.628	-0.628
GACTCA	-0.732	-0.011	-0.368	-0.649	-0.943
TATGCT	0.465	0.079	0.03	0.372	0.528
ACGCGC	-0.826	-0.159	-0.014	-0.789	-0.98
CATACG	0.831	0.669	1.13	0.744	0.35
